Experimental data reported in paper PMC10218303, “Novel Polymyxin-Inspired Peptidomimetics Targeting the SARS-CoV-2 Spike:hACE2 Interface” (International Journal of Molecular Sciences, 2023).
Values joined by “and” are separate entries in the source; they are usually repeats but may differ in a detail not shown here. Equal entries are not always repeated. Bridge positions count the residues as written; N and C are the ends. Square brackets hold non-standard residues; d marks the D form. Peptide text beside a SMILES is read from it. Dab = NCC[C@H](N)C(=O)O

Molecular target: RBD of the Wuhan-Hu-1 SARS-CoV-2 spike protein (Severe acute respiratory syndrome coronavirus 2, UniProt P0DTC2)
Assay: biochemical
Conditions: for Kd: KD (dissociation equilibrium constant); for kon: pH 7.4, read-out: ka (association rate constant); for koff: pH 7.4, read-out: kd (dissociation rate constant)

With CC[C@H](C)[C@@H]1NC(=O)[C@@H](NC(=O)[C@H](CCN)NC(=O)[C@@H](NC(=O)[C@H](CC(C)C)NC(C)=O)[C@@H](C)O)CCNC(=O)[C@H](Cn2cc(CC(=O)N[C@@H](CCN)C(=O)N[C@H]3CCNC(=O)[C@H]([C@@H](C)O)NC(=O)[C@H](CCN)NC(=O)[C@H](Cc4c[nH]c5ccccc45)NC(=O)[C@H](CC(C)C)NC(=O)[C@@H](Cc4ccccc4)NC(=O)[C@H](Cc4ccc(O)cc4)NC3=O)nn2)NC(=O)[C@H](CCN)NC(=O)[C@H](CCN)NC(=O)[C@H](Cc2ccc(O)cc2)NC(=O)[C@@H](Cc2ccccc2)NC1=O [dimer 3] as the molecule, how does the “binding to the RBD in SPR, in words” value read?
The value was “did not produce reliable data because of the aspecific interaction with the matrix of the chip”.

With CC[C@H](C)[C@@H]1NC(=O)[C@@H](NC(=O)[C@H](CCN)NC(=O)[C@@H](NC(=O)[C@H](CC(C)C)NC(C)=O)[C@@H](C)O)CCNC(=O)[C@H](Cn2cc(CCC(=O)N[C@@H](CCN)C(=O)N[C@H]3CCNC(=O)[C@H]([C@@H](C)O)NC(=O)[C@H](CCN)NC(=O)[C@H](Cc4c[nH]c5ccccc45)NC(=O)[C@H](CC(C)C)NC(=O)[C@@H](Cc4ccccc4)NC(=O)[C@H](Cc4ccc(O)cc4)NC3=O)nn2)NC(=O)[C@H](CCN)NC(=O)[C@H](CCN)NC(=O)[C@H](Cc2ccc(O)cc2)NC(=O)[C@@H](Cc2ccccc2)NC1=O [dimer 4] as the molecule, how does the “binding to the RBD in SPR, in words” value read?
The value was “did not produce reliable data because of the aspecific interaction with the matrix of the chip”.

With CC(=O)N[C@@H](CCC(=O)O)C(=O)N[C@H](C(=O)N[C@@H](CCN)C(=O)N[C@H]1CCNC(=O)[C@H](Cn2cc(CC(=O)N[C@@H](CC(C)C)C(=O)N[C@H]3CCNC(=O)[C@H]([C@@H](C)O)NC(=O)[C@H](CCN)NC(=O)[C@H](CCN)NC(=O)[C@H](CC(C)C)NC(=O)[C@@H](Cc4ccccc4)NC(=O)[C@H](Cc4c[nH]c5ccccc45)NC3=O)nn2)NC(=O)[C@H](CCN)NC(=O)[C@H](CCN)NC(=O)[C@H](Cc2ccc(O)cc2)NC(=O)[C@@H](Cc2ccccc2)NC(=O)[C@H](Cc2ccc(O)cc2)NC1=O)[C@@H](C)O [dimer 7] as the molecule, how does the Kd read?
Its Kd is 2.31 to 2.78 µM and 2.31 µM.

What about the kon of the same molecule?
The kon was 3090 ± 590 M⁻¹ s⁻¹.

And the koff?
The koff was 0.00683 ± 0.00158 s⁻¹.

With CC(=O)N[C@@H](CCC(=O)O)C(=O)N[C@H](C(=O)N[C@@H](CCN)C(=O)N[C@H]1CCNC(=O)[C@H](Cn2cc(CC(=O)N[C@@H](CCN)C(=O)N[C@H]3CCNC(=O)[C@H]([C@@H](C)O)NC(=O)[C@H](CCN)NC(=O)[C@H](Cc4c[nH]c5ccccc45)NC(=O)[C@H](CC(C)C)NC(=O)[C@@H](Cc4ccccc4)NC(=O)[C@H](Cc4c[nH]c5ccccc45)NC3=O)nn2)NC(=O)[C@H](CCN)NC(=O)[C@H](CCN)NC(=O)[C@H](CC(C)C)NC(=O)[C@@H](Cc2ccccc2)NC(=O)[C@H](Cc2ccc(O)cc2)NC1=O)[C@@H](C)O [dimer 10] as the molecule, how does the Kd read?
Its Kd is 2.31 to 2.78 µM and 2.78 µM.

What about the kon of the same molecule?
Its kon is 2650 ± 670 M⁻¹ s⁻¹.

What about the koff of the same molecule?
Its koff is 0.007 ± 0.0011 s⁻¹.

CC(C)C[C@@H]1NC(=O)[C@@H](Cc2ccccc2)NC(=O)[C@H](Cc2ccc(O)cc2)NC(=O)[C@@H](NC(=O)[C@@H](N)CCN)CCNC(=O)[C@H]([C@@H](C)O)NC(=O)[C@H](CCN)NC(=O)[C@H](Cc2c[nH]c3ccccc23)NC1=O [monomer 1] (H-[Dab][Dab]Y[dF]LW[Dab]T; lactam 2-C) was tested. Which Kd did it give?
Its Kd is 10.1 ± 2.09 µM.

And the kon?
Its kon is 610 ± 50 M⁻¹ s⁻¹.

And the koff?
The koff was 0.00612 ± 0.00079 s⁻¹.

With CC[C@H](C)[C@@H]1NC(=O)[C@@H](NC(=O)[C@H](CCN)NC(=O)[C@@H](NC(=O)[C@H](CC(C)C)NC(C)=O)[C@@H](C)O)CCNC(=O)[C@H](Cn2cc(CC(=O)O)nn2)NC(=O)[C@H](CCN)NC(=O)[C@H](CCN)NC(=O)[C@H](Cc2ccc(O)cc2)NC(=O)[C@@H](Cc2ccccc2)NC1=O [monomer 2] as the molecule, how does the Kd read?
The Kd was 9.62 ± 1.25 µM.

And the kon?
The kon was 460 ± 20 M⁻¹ s⁻¹.

And the koff?
Its koff is 0.00439 ± 0.00039 s⁻¹.

CC(C)C[C@@H]1NC(=O)[C@@H](Cc2ccccc2)NC(=O)[C@H](Cc2c[nH]c3ccccc23)NC(=O)[C@@H](NC(=O)[C@@H](N)CC(C)C)CCNC(=O)[C@H]([C@@H](C)O)NC(=O)[C@H](CCN)NC(=O)[C@H](CCN)NC1=O [monomer 5] (H-L[Dab]W[dF]L[Dab][Dab]T; lactam 2-C) was tested. Which “binding to the RBD in SPR, in words” value did it give?
The value was “detectable yet returning binding”.

With CC(=O)N[C@@H](CCC(=O)O)C(=O)N[C@H](C(=O)N[C@@H](CCN)C(=O)N[C@H]1CCNC(=O)[C@H](Cn2cc(CC(=O)O)nn2)NC(=O)[C@H](CCN)NC(=O)[C@H](CCN)NC(=O)[C@H](Cc2ccc(O)cc2)NC(=O)[C@@H](Cc2ccccc2)NC(=O)[C@H](Cc2ccc(O)cc2)NC1=O)[C@@H](C)O [monomer 6] as the molecule, how does the “binding to the RBD in SPR, in words” value read?
Its value is “detectable yet returning binding”.

For CC(C)C[C@@H]1NC(=O)[C@@H](Cc2ccccc2)NC(=O)[C@H](Cc2c[nH]c3ccccc23)NC(=O)[C@@H](NC(=O)[C@@H](N)CCN)CCNC(=O)[C@H]([C@@H](C)O)NC(=O)[C@H](CCN)NC(=O)[C@H](Cc2c[nH]c3ccccc23)NC1=O [monomer 8] (H-[Dab][Dab]W[dF]LW[Dab]T; lactam 2-C), which Kd is on record?
The Kd was 8.56 ± 4.16 µM.

What about the kon of the same molecule?
Its kon is 1200 ± 410 M⁻¹ s⁻¹.

What about the koff of the same molecule?
The koff was 0.00943 ± 0.00152 s⁻¹.

For CC(=O)N[C@@H](CCC(=O)O)C(=O)N[C@H](C(=O)N[C@@H](CCN)C(=O)N[C@H]1CCNC(=O)[C@H](Cn2cc(CC(=O)O)nn2)NC(=O)[C@H](CCN)NC(=O)[C@H](CCN)NC(=O)[C@H](CC(C)C)NC(=O)[C@@H](Cc2ccccc2)NC(=O)[C@H](Cc2ccc(O)cc2)NC1=O)[C@@H](C)O [monomer 9], which “binding to the RBD in SPR, in words” value is on record?
The value was “devoid of any meaningful RBD binding”.
